The list shows a part of the results. The main result of the screen is listed elsewhere. These columns were measured beside it and carry no call. Most of these compounds were active or inconclusive in the main read-out, so they are no random draw.
assay: beta-lactam sensitization of Mtb H37Rv, H37Rv (AID 434955);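 note: growth measured after seven days incubation then overnight dye step; 0% = bacteria only wells and 100% = bacteria with antibiotic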; conditions: M. tuberculosis H37Rv growth with meropenem, percent inhibition; measured here: primary screen without meropenem; at 25 µM

Row | SMILES | inhibition [%]
1 | CC(=O)c1c(C)[nH]c(C(=O)CN2C(=O)NC(C)(c3ccc4c(c3)OCO4)C2=O)c1C (stereo not given) | -5.94
2 | O=C(Nc1cccc2ccccc12)N1CCCN(c2c(Cl)cncc2Cl)CC1 | 11.7
3 | CCOC(=O)c1sc(NC(=O)CN2CCCC2)c(C(=O)OCC)c1C | 8.02
4 | O=C(Nc1cccc(Br)c1)c1cccc(OC(=S)N2CCOCC2)c1 | 10.4
5 | O=C(COc1ccccc1[N+](=O)[O-])N1CCN(C(=O)c2ccco2)CC1 | 0.04
6 | Cc1cc2ncc(-c3ncc(C(F)(F)F)cc3Cl)cn2n1 | 0.63
7 | COC(=O)c1cccc(S(=O)(=O)N2CCOCC2)c1 | 2.17
8 | O=C(CCNc1ccccc1)c1cccc([N+](=O)[O-])c1 | 23.4
9 | CC(/C=N/Nc1nncc(=O)[nH]1)=C\c1ccccc1 | -3.9
10 | S=c1nc(-c2ccccc2)[nH]n1-c1ccccc1 | 3.33
11 | CC(C)(C(=O)c1ccccc1)/[N+]([O-])=C/c1ccccc1F | 5.91
12 | CN1CCN(C(=O)COCc2cc(-c3ccc4c(c3)OCO4)on2)CC1 | -0.75
13 | CC(C)NC(=O)C(=O)NNC(=O)C12CC3CC(CC(C3)C1)C2 | 15.8
14 | Cc1cccc(CC(C)NC(=O)c2cc(COc3ccc(C)c(C)c3)on2)n1 (stereo not given) | 14.2
15 | Cc1cc(C)c(CN2CCC(n3nccc3NC(=O)c3ccccc3Cl)CC2)cc1C | 9.81
16 | COc1ccc(C2CC(c3ccccc3)Nc3ncnn32)cc1 (stereo not given) | -9.78
17 | O=C(CSCC(=O)Nc1ccccc1)N/N=C/c1c(O)ccc2ccccc12 | 44.4
18 | CC(C)n1cc(CN2CCCC(CNS(=O)(=O)c3cccc4cccnc34)C2)cn1 (stereo not given) | 5.35
19 | O=C(CN1C(=O)c2cccnc2Oc2ccc(Cl)cc21)N1CCCC1 | 3.92
20 | COc1ccc(NS(=O)(=O)c2cn(C)nc2C)cc1 | 3.65
21 | O=C(c1cc(COc2c(F)cccc2F)on1)N1CCCCCC1 | -0.9
22 | CCc1ccc2c(c1)c1nnc(NN)nc1n2CC | -0.03
23 | COC(=O)CSc1nnc(-c2cnccn2)n1C | 4.69
24 | CCCC(C)NC(=O)c1ccc(OCc2ccc(Cl)cc2)c(OC)c1 (stereo not given) | 50.1
25 | Nc1nc(Sc2ncccc2[N+](=O)[O-])n[nH]1 | 3.27
26 | O=C(NCC1(O)CCCCC1)C1CCC(=O)N(Cc2ccccc2F)C1 (stereo not given) | -0.02
27 | Cc1onc(-c2ccccc2)c1C(=O)NC(=S)NNC(=O)c1ccc(O)cc1O | 10.1
28 | CCOC(=O)c1ccc(NC(=O)NCCc2ccccc2OC)cc1 | 4.48

Row | SMILES | inhibition [%]
29 | O=C(CN1CCCC1)Nc1sc2c(c1C(=O)Nc1ccc(Br)cc1)CCC2 | -0.27
30 | CN1CCN(c2ccc(NC(=O)c3ccc(-c4ccc(Cl)cc4)o3)cc2)CC1 | 99.6
31 | Cc1cccc2c1nc(-c1ccccc1)n1nnnc21 | 3.95
32 | CCOC(=O)c1sc(NC(=O)CSc2n[nH]c(CC(C)C)n2)nc1C | 15.1
33 | CCOC(=O)c1ccccc1NC(=O)COC(=O)CCC(=O)N1CCOCC1 | 4.76
34 | CC(=O)c1cccc(CN2CCC(n3nccc3NC(=O)CCCc3ccccc3)CC2)c1 | 0.9
35 | CCN(Cc1ccccc1)S(=O)(=O)c1cc2[nH]c(=O)c(=O)[nH]c2cc1C | -7.55
36 | Cc1ccc(CNS(=O)(=O)c2c(C)[nH]c(C)c2C(=O)N2CCCCC2)cc1 | 2.51
37 | O=C(/C(=C/c1ccc(Cl)cc1)c1nc2ccccc2[nH]1)c1cccs1 | 90.9
38 | CCn1c(CN2CCOCC2)nnc1SCC(=O)Nc1ccccc1C | 0.37
39 | COc1ccc(/C(N)=N/OC(=O)Cc2cccs2)cc1 | 1.46
40 | COc1ccc(OCc2cc(C(=O)NC(C)Cn3cncn3)no2)c(Cl)c1 (stereo not given) | -2.57
41 | CC(=O)N(Cc1cc(=O)[nH]c2ccccc12)c1ccccc1C | -8.87
42 | CN(CC(=O)N1CCN(Cc2ccccc2)CC1)S(=O)(=O)c1ccc(Br)cc1 | 18
43 | COc1ccc(OC)c2nc(-c3ccc4c(c3)OCO4)ccc12 | 42.6
44 | O=C(Nc1ccccc1)C1CCN(C(=O)c2ccc(Br)cc2)CC1 | 0.23
45 | Cc1cccc(C)c1NC1=NC2(CCCCC2)N=C(N)N1 | -3.89
46 | COc1ccccc1NC(=O)NNC(=O)CCN1CCOCC1 | -2.48
47 | CCOc1ccc(-c2n[nH]c(=S)n2/N=C/c2cc3c(cc2[N+](=O)[O-])OCO3)cc1 | -2.46
48 | COc1ccc(N2C(=O)CC(SCCc3nc4ccccc4[nH]3)C2=O)cc1 (stereo not given) | 1.13
49 | O=C(Cn1c(SCc2ccccc2)nc2ccccc21)N1CCOCC1 | 2.43
50 | Cc1ccccc1OCC(=O)NNC(=S)NC(=O)c1ccco1 | 98
51 | Cc1cc(C)c(S(=O)(=O)Nc2cccnc2)c(C)c1 | 6.31
52 | NC(=O)c1ccc(-c2ncc(-c3ccccc3)o2)cc1 | 51.1
53 | O=C(O)CC1OCC=C2CN3CCC45C6=CC(=O)C(=O)C([N+](=O)[O-])=C6NC4C1C2CC35 (stereo not given) | 7.03
54 | Cc1ccc(S(=O)(=O)N2CCN(Cc3cc(C(C)C)ccc3O)CC2)cc1 | -12.4
55 | COc1ccc(N2C(=O)CSC2c2cccs2)cc1 (stereo not given) | 3.46

— PubChem BioAssay AID434955 (Southern Research Specialized Biocontainment Screening …, 2010)
